Measured values: article PMC7049730, “Adjacent mutations in the archaeal Rad50 ABC ATPase D-loop disrupt allosteric regulation of ATP hydrolysis through different mechanisms” (Nucleic Acids Research, 2019)

B1: Full-length P. furiosus Rad50 L51C, LRET-labelled (natural protein)
chain: not shown
modifications: Tb3+ chelate DTPA-cs124-EMPH and Bodipy FL maleimide added together, on the cysteine L51C (Zn-hook cysteines labelled ~10% in a control)
notes: Rad50, Pyrococcus furiosus, full length, cloned from genomic DNA (ATCC); Dual-labelled Rad50 mixed 1:1 with Mre11; the LRET reports on the association of the two NBDs within the full-length MR complex; also called wild type full-length MR (LRET); full-length Pf Rad50 L51C; source: E. coli Rosetta (DE3), purified (heat, HisTrap, TEV cleavage, HiTrapQ, Superdex 200); labelled; not shown: …
B2: Full-length P. furiosus Rad50 L51C/D829A, LRET-labelled (natural protein)
chain: not shown
modifications: Tb3+ chelate DTPA-cs124-EMPH and Bodipy FL maleimide added together, on the cysteine L51C
notes: Rad50, Pyrococcus furiosus, full length; Measured within the full-length MR complex with Mre11; also called D829A full-length MR (LRET); source: E. coli Rosetta (DE3), purified (heat, HisTrap, TEV cleavage, HiTrapQ, Superdex 200); labelled; not shown: His6, N-terminal, cleaved
B3: Full-length P. furiosus Rad50 L51C/L828F, LRET-labelled (natural protein)
chain: not shown
modifications: Tb3+ chelate DTPA-cs124-EMPH and Bodipy FL maleimide added together, on the cysteine L51C
notes: Rad50, Pyrococcus furiosus, full length; Measured within the full-length MR complex with Mre11; also called L828F full-length MR (LRET); source: E. coli Rosetta (DE3), purified (heat, HisTrap, TEV cleavage, HiTrapQ, Superdex 200); labelled; not shown: His6, N-terminal, cleaved
B4: Full-length P. furiosus Rad50 L51C/D829N, LRET-labelled (natural protein)
chain: not shown
modifications: Tb3+ chelate DTPA-cs124-EMPH and Bodipy FL maleimide added together, on the cysteine L51C
notes: Rad50, Pyrococcus furiosus, full length; Measured within the full-length MR complex with Mre11; also called D829N full-length MR (LRET); source: E. coli Rosetta (DE3), purified (heat, HisTrap, TEV cleavage, HiTrapQ, Superdex 200); labelled; not shown: His6, N-terminal, cleaved
B5: Full-length P. furiosus Rad50 L51C/L828A, LRET-labelled (natural protein)
chain: not shown
modifications: Tb3+ chelate DTPA-cs124-EMPH and Bodipy FL maleimide added together, on the cysteine L51C
notes: Rad50, Pyrococcus furiosus, full length; Measured within the full-length MR complex with Mre11; also called L828A full-length MR (LRET); source: E. coli Rosetta (DE3), purified (heat, HisTrap, TEV cleavage, HiTrapQ, Superdex 200); labelled; not shown: His6, N-terminal, cleaved

Tests used:
[1] = target: the molecule itself; assay: FRET or BRET; LRET on dual-labelled (Tb3+ chelate and Bodipy FL on L51C) full-length Rad50 mixed 1:1 with Mre11, 0.5 uM MR complex; donor-sensitized acceptor lifetimes, three-exponential fit; no ATP (apo); 50 mM Tris, 200 mM NaCl, 5 mM MgCl2, pH 7.5, 50 °C; percent of LRET-visible molecules only
[2] = target: the molecule itself; assay: FRET or BRET; as a3 but with 2 mM ATP (ATP-bound); full-length MR complex, 0.5 uM

| Protein | percent of molecules in the closed state [1] [%] | percent of molecules in the closed state [2] [%] |
| --- | --- | --- |
| B1 | 15 | 28 |
| B2 | 17 | 24 |
| B3 | 19 | 25 |
| B4 | 19 | 20 |
| B5 | 16 | 17 |
